Among all 130,000 compounds or so, about 550 (0.42%) were called active. The shares of active, inactive and inconclusive entries below differ from those in the screen. Calls come from the whole dose curve; as a rule, active = well fitted inhibition curve with a large enough effect; inconclusive = small, poorly fitted or top-dose-only effect, or effect the other way; inactive = flat fitted curve, though single readings scatter. Potencies of inconclusive entries are left out as doubtful fits.
Assay: qHTS Assay for Inhibitors of the ERK Signaling Pathway using a Homogeneous Screening Assay; Stimulation with EGF; note: nearly all actives have a fitted effect of over 55% in size
Conditions: HEK293-V1b, EGF-stimulated phospho-ERK AlphaScreen
Procedure, shortened: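 Concentration-response of compounds against EGF-driven ERK phosphorylation in V1b-expressing HEK293 cells; 30 min preincubation, 5 min EGF, AlphaScreen detection; Normalized to DMSO basal and 25 nM EGF.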
For Cc1ccc(Nc2ccc(S(=O)(=O)N3CCOCC3)cc2[N+](=O)[O-])c(C)c1, the Potency was inconclusive [inhibitor, single point]. For O=C(NNC(=O)C12CC3CC(CC(C3)C1)C2)[C@@H]1C[C@H]1c1ccccc1, the Potency was inconclusive [inhibitor, full curve, poor fit]. With O=C(CN1C(=O)S/C(=C\c2ccccc2)C1=O)NNC(=O)c1ccccc1O the Potency was inconclusive [inhibitor, partial curve]. With O=C(COC(=O)CC(c1ccccc1)c1ccccc1)Nc1cccc(F)c1 the Potency was inconclusive [inhibitor, single point]. For CC(=O)c1ccc(Sc2nnnn2-c2ccccc2)c([N+](=O)[O-])c1, the Potency was inconclusive [inhibitor, partial curve]. For CC(=O)c1sc(NC(=O)COc2ccc(Cl)cc2Cl)nc1C, the Potency was “inactive”. With Cc1cc(C)cc(-c2cc3c(c(-c4c(O)c(-c5cc(C)cc(C)c5)cc5c4CCCC5)c2O)CCCC3)c1 the Potency was “inactive”. With CSc1ccc(/C=N/N2CCN(Cc3ccccc3)CC2)cc1 the Potency was inconclusive [inhibitor, partial curve, poor fit]. In the case of COC(=O)N1C2(C=CC1(C)C(=O)NCc1ccc(N(C)C)cc1)CCCCC2 (stereo not drawn), the Potency is reported as “inactive”. For NC(=O)CSCc1cccc(Br)c1, the Potency was “inactive”. With CN(C)C(=O)NC(NC(=S)Nc1ccccc1)C(Cl)(Cl)Cl (stereo not drawn) the Potency was inconclusive [inhibitor, single point]. With N#C/C(=C\c1ccc(-c2ccc(C(=O)O)cc2)o1)c1nc2ccccc2[nH]1 the Potency was inconclusive [inhibitor, partial curve]. For O=C(Nc1nc2ccccc2s1)C1CCN(S(=O)(=O)c2cc([N+](=O)[O-])ccc2Cl)CC1, the Potency was inconclusive [inhibitor, partial curve]. In the case of CC(C)=CCC/C(C)=C/CO, the Potency is reported as “inactive”. For COc1ccc(OC)c(NS(=O)(=O)c2ccc(Br)s2)c1, the Potency was inconclusive [inhibitor, single point]. In the case of O=C(Cc1ccc(F)cc1)Nc1ccccc1Sc1ccccc1, the Potency is reported as inconclusive [activator, partial curve]. For O=C1c2ccccc2C(=O)c2c(O)ccc(O)c21, the Potency was “inactive”. For O=C(CSc1nnc2c(n1)[nH]c1ccccc12)Nc1cccc(S(=O)(=O)N2CCOCC2)c1, the Potency was inconclusive [inhibitor, full curve, poor fit]. In the case of O=c1cc(-c2ccccc2O)oc2c1ccc1ccccc12, the Potency is reported as “inactive”. For Cc1cnc(C(=O)OCC(=O)NC2CCCCCCC2)cn1, the Potency was inconclusive [inhibitor, single point]. For CNc1nc(-c2ccc3c(c2)CCN3C(=O)c2cccc(F)c2)cs1, the Potency was inconclusive [inhibitor, partial curve]. In the case of Oc1ccccc1-n1c(-c2ccccc2)ccc1-c1ccccc1, the Potency is reported as inconclusive [inhibitor, single point]. With NC(=O)NC(=O)COC(=O)c1cccc(NS(=O)(=O)/C=C/c2ccccc2)c1 the Potency was inconclusive [inhibitor, single point]. With CCOc1cc(/C=N/Nc2nc(-c3cccs3)c(NC(C)=O)s2)ccc1O the Potency was inconclusive [inhibitor, single point]. With CCC(C)(C)C1CCc2[nH]nc(C(=O)N/N=C(\C)c3ccco3)c2C1 (stereo not drawn) the Potency was inconclusive [inhibitor, single point]. For CCCC[C@H]1C[C@@H]1[C@@H]1N(C(C)=O)[C@H](c2cccc(OC)c2)CC12CC2, the Potency was “inactive”. With COc1ccc(Nc2ncnc3ccccc23)c(OC)c1 the Potency was inconclusive [inhibitor, single point]. With COc1ccccc1NS(=O)(=O)c1cccc(NC(=O)Nc2ccc(Cl)cc2)c1 the Potency was active: 28.2 µM. In the case of CCN(CC)C(=O)C1CCCN(c2ccc([N+](=O)[O-])cc2)C1 (stereo not drawn), the Potency is reported as inconclusive [inhibitor, single point]. In the case of CC(Oc1ccc(Br)cc1)C(=O)N1CCc2ccccc21 (stereo not drawn), the Potency is reported as inconclusive [activator, partial curve]. For Cc1ccc(N2CCN(C(=S)c3ccc(-c4ccccc4[N+](=O)[O-])o3)CC2)cc1, the Potency was inconclusive [inhibitor, partial curve]. For Cc1ccc(C(=O)NC(=S)Nc2ccc(N3CCOCC3)cc2)c(C)c1, the Potency was inconclusive [inhibitor, single point]. In the case of C=C(C)c1cccc(C(C)(C)NC(=O)Nc2cc(C)ccn2)c1, the Potency is reported as inconclusive [inhibitor, single point]. In the case of CCC(C(=O)O)c1ccccc1 (stereo not drawn), the Potency is reported as “inactive”. For NS(=O)(=O)c1ccc(CCNS(=O)(=O)c2cccc(C(=O)O)c2)cc1, the Potency was inconclusive [activator, partial curve]. With Cc1[nH]nc(N)c1N=Nc1ccc(Br)cc1 the Potency was inconclusive [inhibitor, partial curve, poor fit]. For Cc1ccc(Cn2ncc(Cl)c(Cl)c2=O)cc1, the Potency was “inactive”. In the case of COc1ccc(C(=O)CSc2ccc3nnc(-c4cccnc4)n3n2)cc1, the Potency is reported as inconclusive [inhibitor, partial curve, poor fit]. For CCCOc1ccc(Cc2c(Cl)nc(SC)nc2N(C)C)cc1, the Potency was inconclusive [activator, single point]. In the case of O=C(Nc1nc(-c2ccc(F)cc2)cs1)c1ccc(N2C(=O)CCC2=O)cc1, the Potency is reported as inconclusive [inhibitor, single point]. In the case of Cc1nc(-c2cc(-c3nc(-c4ccc(C(C)(C)C)cc4)no3)no2)cs1, the Potency is reported as “inactive”. With CC(CNC(=O)COc1ccccc1)OC(=O)Nc1ccc(Cl)c(Cl)c1 (stereo not drawn) the Potency was inconclusive [inhibitor, single point]. For O=C(c1ccc(CSc2nc3ccncc3[nH]2)cc1)N1CCN(c2cccc(Cl)c2)CC1, the Potency was active: 17.8 µM. For CCOC(=O)C1(CCOc2ccccc2)CCN(Cc2ccc3c(c2)OCCO3)CC1, the Potency was inconclusive [inhibitor, partial curve, poor fit]. In the case of CCOC(=O)CC(CC(C)=O)C(=O)OCC (stereo not drawn), the Potency is reported as “inactive”. With COCCn1c(-c2ccc(Br)cc2)csc1=Nc1cccnc1 the Potency was inconclusive [inhibitor, full curve]. For O=C(c1ccc2ccccc2c1)c1c[nH]cc1-c1ccccc1, the Potency was inconclusive [inhibitor, single point]. With O=[N+]([O-])c1ccc2c(c1Nc1ccccc1Cl)=NC1(CCCCC1)N=2 the Potency was inconclusive [inhibitor, partial curve]. With Cn1cccc1C(=O)N1CCC[C@@]2(CCN(C(c3ccccc3)c3ccccc3)C2)C1 the Potency was “inactive”. In the case of Cc1ccc(Cl)c(Nc2ccccc2C(=O)O)c1Cl, the Potency is reported as inconclusive [inhibitor, partial curve]. For COC(=O)C1=C(C)NC(C)=C(C(=O)OCCCN2CCC(c3ccccc3)(c3ccccc3)CC2)[C@H]1c1cccc([N+](=O)[O-])c1, the Potency was “inactive”. In the case of COc1ccccc1NS(=O)(=O)c1ccc(N/N=C/c2ccccc2OCC(=O)O)c([N+](=O)[O-])c1, the Potency is reported as inconclusive [inhibitor, single point]. In the case of Cc1cc(C)c(Cn2cnc3ccccc32)c(C)c1, the Potency is reported as inconclusive [inhibitor, single point]. In the case of CN(C)c1ccc(/C=C/C(=O)c2ccccc2O)cc1, the Potency is reported as inconclusive [inhibitor, partial curve]. For CCN(CC)c1ccc(NC(=S)NC(=O)c2ccco2)cc1, the Potency was inconclusive [inhibitor, single point]. With CN(CCc1cn[nH]c1)C(=O)CC1C(=O)NCCN1Cc1ccccc1C(F)(F)F (stereo not drawn) the Potency was inconclusive [activator, partial curve, poor fit]. In the case of CC(=O)Nc1ccc(-c2csc(Nc3cc(C)ccn3)n2)cc1, the Potency is reported as inconclusive [inhibitor, single point]. For C=CCn1c(O)c(C2=c3ccccc3=NC2=O)sc1=Nc1ccc(O)cc1, the Potency was inconclusive [inhibitor, single point]. With COCCn1c(=NC(=O)c2ccc(S(=O)(=O)N3CCCc4ccccc43)cc2)sc2cc(S(C)(=O)=O)ccc21 the Potency was “inactive”. With O=C1ON=C(c2ccc(Cl)cc2)/C1=C/c1ccc(O)cc1 the Potency was inconclusive [inhibitor, single point]. For COC(=O)N[C@@H](CCc1ccccc1)[C@]1(C(=O)OC)CCCC1=O, the Potency was “inactive”. In the case of O=C(COc1ccccc1[N+](=O)[O-])Nc1ccc(NC(=O)c2cc3ccccc3o2)cc1, the Potency is reported as “inactive”. With CCCOC(=O)Nc1c(C)cccc1C(C)C the Potency was inconclusive [activator, partial curve]. For O=C(NCCc1ccccc1)C1CCN(C2CCN(C(=O)CC3=CCCCC3)CC2)CC1, the Potency was inconclusive [inhibitor, single point]. With Cc1ccccc1N1CCN(C(=S)c2ccc(-c3cccc([N+](=O)[O-])c3)o2)CC1 the Potency was inconclusive [inhibitor, single point]. For COc1ccc(OCCSc2nc(C)nc3ccccc23)cc1, the Potency was inconclusive [inhibitor, single point]. With O=S(=O)(/N=C(/Nc1ccccc1)c1ccccc1O)c1ccccc1 the Potency was inconclusive [inhibitor, single point]. In the case of CCN(CC)c1ccc(/C=N/N2C(=O)c3ccccc3C2=O)c(O)c1, the Potency is reported as “inactive”.

From PubChem BioAssay AID1454 (National Center for Advancing Translational Sciences (NCATS), 2008)
Potency is the fitted concentration of half-maximal effect; tags give direction and shape of the fitted curve.
